Reference: patent publication US20220175728A1, “PHARMACEUTICAL USE OF CHLOROPHYLLIDE FOR ANTI-VIRAL INFECTION” (I-SHOU UNIVERSITY, priority 2020, published 2022)

Tested on: African green monkey kidney Vero cells infected with dengue
Assay: Gene expression profile by next generation sequencing, dengue-infected Vero cells
Assay type: cell-based
Conditions: dengue plus chlorophyllide relative to dengue-infected Vero cells

chlorophyllide
Log2 fold change, ABCC1 (gene ABCC1): −2.058 | Log2 fold change, ACSL3 (gene ACSL3): −1.699 | Log2 fold change, AGRN (gene AGRN): −1.539 | Log2 fold change, ATP2A2 (gene ATP2A2): −2.280 | Log2 fold change, BMPR2 (gene BMPR2): −1.641 | Log2 fold change, CALR (gene CALR): −1.590 | Log2 fold change, COL4A4 (gene COL4A4): −1.660 | Log2 fold change, DAG1 (gene DAG1): −1.806 | Log2 fold change, DNAJC3 (gene DNAJC3): −2.131 | Log2 fold change, EGFR (gene EGFR): −1.680 | Log2 fold change, EIF2AK3 (gene EIF2AK3): −1.719 | Log2 fold change, EPHA2 (gene EPHA2): −1.661 | Log2 fold change, FN1 (gene FN1): −3.808 | Log2 fold change, FTL (gene FTL): 1.194 | Log2 fold change, HMGCR (gene HMGCR): −2.042 | Log2 fold change, HSP90B1 (gene HSP90B1): −2.359 | Log2 fold change, HSPG2 (gene HSPG2): −2.242 | Log2 fold change, IL6ST (gene IL6ST): −1.880 | Log2 fold change, ITGA1 (gene ITGA1): −1.762 | Log2 fold change, NEO1 (gene NEO1): −1.905 | Log2 fold change, NOTCH2 (gene NOTCH2): −2.195 | Log2 fold change, NRP1 (gene NRP1): −1.611 | Log2 fold change, PDIA3 (gene PDIA3): −1.563 | Log2 fold change, PLIN2 (gene PLIN2): 1.440 | Log2 fold change, RELN (gene RELN): −2.398 | Log2 fold change, SCD (gene SCD): −1.735 | Log2 fold change, SLC7A1 (gene SLC7A1): −2.059 | Log2 fold change, TFRC (gene TFRC): −1.925 | Log2 fold change, VCAN (gene VCAN): −3.721
